Screen size: about 310,000 compounds; about 14,000 (4.5%) showed an effect of 50% or more. The effect is printed as a negative number. Some of the results follow.
Biological target: human ether-à-go-go-related gene (hERG) potassium channel (human, UniProt Q12809)
Assay: primary screen, population patch clamp on CHO cells stably expressing hERG
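Note: peak tail current of the secondary pulse compared with the same well before compound.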

Chain of human ether-à-go-go-related gene (hERG) potassium channel (Q12809 whole entry, looked up): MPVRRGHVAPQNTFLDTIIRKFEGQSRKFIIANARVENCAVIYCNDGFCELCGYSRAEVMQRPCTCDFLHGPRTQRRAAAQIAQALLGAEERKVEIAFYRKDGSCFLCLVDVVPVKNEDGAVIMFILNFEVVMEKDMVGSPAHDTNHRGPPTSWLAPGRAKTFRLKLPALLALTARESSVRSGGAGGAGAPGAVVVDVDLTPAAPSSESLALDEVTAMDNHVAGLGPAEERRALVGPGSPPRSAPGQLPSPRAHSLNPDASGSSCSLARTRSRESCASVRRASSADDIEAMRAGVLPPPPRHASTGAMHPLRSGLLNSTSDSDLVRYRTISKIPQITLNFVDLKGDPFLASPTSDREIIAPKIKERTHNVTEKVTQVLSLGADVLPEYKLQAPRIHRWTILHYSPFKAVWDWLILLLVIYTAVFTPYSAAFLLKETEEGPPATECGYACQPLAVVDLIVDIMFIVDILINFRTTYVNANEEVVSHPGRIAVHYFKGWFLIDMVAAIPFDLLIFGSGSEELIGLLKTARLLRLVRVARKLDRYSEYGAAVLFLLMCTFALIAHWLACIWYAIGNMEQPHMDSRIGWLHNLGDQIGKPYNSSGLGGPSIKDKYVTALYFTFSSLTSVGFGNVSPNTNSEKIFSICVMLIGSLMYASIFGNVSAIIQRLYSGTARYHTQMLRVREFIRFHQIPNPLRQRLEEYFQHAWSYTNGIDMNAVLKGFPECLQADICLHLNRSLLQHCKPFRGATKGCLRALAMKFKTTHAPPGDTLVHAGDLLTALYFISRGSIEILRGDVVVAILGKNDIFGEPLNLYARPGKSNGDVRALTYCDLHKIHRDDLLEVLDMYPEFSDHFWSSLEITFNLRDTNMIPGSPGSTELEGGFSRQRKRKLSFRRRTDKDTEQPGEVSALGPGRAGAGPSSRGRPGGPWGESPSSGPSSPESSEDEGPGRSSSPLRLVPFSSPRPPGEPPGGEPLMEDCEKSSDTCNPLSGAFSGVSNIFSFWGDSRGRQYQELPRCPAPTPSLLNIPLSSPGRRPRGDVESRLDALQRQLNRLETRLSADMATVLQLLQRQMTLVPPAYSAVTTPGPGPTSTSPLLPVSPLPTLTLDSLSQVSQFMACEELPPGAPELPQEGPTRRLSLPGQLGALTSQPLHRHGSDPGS

**Q.** `CCOC(=O)Cc1csc(NC(=O)CSc2nnc(-c3ccc(OC)cc3)n2C)n1` was tested. Which “hERG current change (%, negative = inhibition) at 10uM” value did it give?
**A.** -8.6%

**Q.** With `C=CCC1(CC=C)CCCN1C(=O)c1cc(COc2cccc(OC)c2)on1` as the compound, how does the “hERG current change (%, negative = inhibition) at 10uM” value read?
**A.** 16.1%

**Q.** Which “hERG current change (%, negative = inhibition) at 10uM” value does the source give for `CCOCCCn1c(-c2ccc(Cl)cc2)n[nH]c1=S` here?
**A.** 4.13%

**Q.** How did the “hERG current change (%, negative = inhibition) at 10uM” value turn out when `CCn1c(=S)[nH]c2cc(C(=O)O)ccc21` was run?
**A.** 31%

**Q.** How did the “hERG current change (%, negative = inhibition) at 10uM” value turn out when `O=C(CSCc1ccco1)NC1CCCC1` was run?
**A.** 12.1%

**Q.** With `CCC(C)(C)NC(=O)C(c1ccc(F)cc1)N(Cc1cccs1)C(=O)c1cnccn1` (centres unmarked) as the compound, how does the “hERG current change (%, negative = inhibition) at 10uM” value read?
**A.** -21.1%

**Q.** For `Cc1c(-c2nc(N)nc(Nc3ccccc3F)n2)oc2ccccc12`, which “hERG current change (%, negative = inhibition) at 10uM” value is on record?
**A.** 20.3%

**Q.** Which “hERG current change (%, negative = inhibition) at 10uM” value does the source give for `Cc1ccc(NS(=O)(=O)c2c(C)[nH]c(C)c2C(=O)N2CCCCC2)cc1F` here?
**A.** 12.5%

**Q.** For `CCc1cccc(C)c1NC(=O)COn1nnc2ccc(C(F)(F)F)cc21`, which “hERG current change (%, negative = inhibition) at 10uM” value is on record?
**A.** 0.291%

**Q.** For `CCNC(=O)CN(CCc1ccccc1)S(=O)(=O)c1ccc(OC)cc1`, which “hERG current change (%, negative = inhibition) at 10uM” value is on record?
**A.** -26.2%

**Q.** `O=C(CN1C(=O)NC(Cc2ccccc2)C1=O)Nc1ccc(F)c(Cl)c1` (centres unmarked) was tested. Which “hERG current change (%, negative = inhibition) at 10uM” value did it give?
**A.** 10.9%

**Q.** Which “hERG current change (%, negative = inhibition) at 10uM” value does the source give for `CN(C)S(=O)(=O)c1ccc(C(=O)OCC2CCCO2)cc1` (centres unmarked) here?
**A.** 14.6%

**Q.** For `CCCCNC(=O)CCSc1ccc(C)cc1`, which “hERG current change (%, negative = inhibition) at 10uM” value is on record?
**A.** -2.9%

**Q.** With `CCn1ncc([C@@H]2C[C@H]3CN(Cc4cccc(Cl)c4)C(=O)[C@]34CCCN24)c1C` as the compound, how does the “hERG current change (%, negative = inhibition) at 10uM” value read?
**A.** -33%

**Q.** `Cn1nc(C(=O)Nc2ccc(S(=O)(=O)NCc3ccco3)cc2)c2ccccc2c1=O` was tested. Which “hERG current change (%, negative = inhibition) at 10uM” value did it give?
**A.** 27.4%

**Q.** With `Cc1cccc(NC(=O)CSc2nnc([C@H](C)NC(=O)OC(C)(C)C)o2)c1C` as the compound, how does the “hERG current change (%, negative = inhibition) at 10uM” value read?
**A.** 3.28%

**Q.** With `O=C1C(=O)N(CCCc2ccccc2)c2ccccc21` as the compound, how does the “hERG current change (%, negative = inhibition) at 10uM” value read?
**A.** 8.28%

**Q.** Which “hERG current change (%, negative = inhibition) at 10uM” value does the source give for `COc1cccc(NC2c3ccccc3C(=O)N2Cc2ccccc2Cl)c1` (centres unmarked) here?
**A.** -12.7%

**Q.** How did the “hERG current change (%, negative = inhibition) at 10uM” value turn out when `CCOc1ccc(OCCn2c(SCC(=O)O)nc3ccccc32)cc1` was run?
**A.** -0.204%

**Q.** With `CC(NC(=O)C1CCN(S(=O)(=O)c2cccc3cccnc23)CC1)c1ccccc1` (centres unmarked) as the compound, how does the “hERG current change (%, negative = inhibition) at 10uM” value read?
**A.** 18.7%

**Q.** For `COc1cc(C(=O)NCC(=O)OCC(=O)N2CCc3ccccc32)cc(OC)c1OC`, which “hERG current change (%, negative = inhibition) at 10uM” value is on record?
**A.** 3.43%

**Q.** `Cc1nn(-c2ccccc2)c(N)c1-c1ccccc1` was tested. Which “hERG current change (%, negative = inhibition) at 10uM” value did it give?
**A.** 5.13%

**Q.** How did the “hERG current change (%, negative = inhibition) at 10uM” value turn out when `CC(=O)c1ccc(N(CC(=O)NC2CCCCC2)C(=O)c2csnn2)cc1` was run?
**A.** -8.91%

**Q.** How did the “hERG current change (%, negative = inhibition) at 10uM” value turn out when `Cc1ccc(Nc2nc(C(=O)N3CCC(C(=O)NCCN4CCOCC4)CC3)cs2)cc1` was run?
**A.** 12.3%

**Q.** How did the “hERG current change (%, negative = inhibition) at 10uM” value turn out when `OCc1nc2ccccc2n1Cc1ccc(Cl)cc1` was run?
**A.** 8.87%

**Q.** For `O=C(COC(=O)c1cnccn1)c1ccc(Cl)cc1`, which “hERG current change (%, negative = inhibition) at 10uM” value is on record?
**A.** 24.4%

**Q.** How did the “hERG current change (%, negative = inhibition) at 10uM” value turn out when `N#Cc1cc(Oc2ccccc2)c(-n2nnc3ccccc32)cc1C#N` was run?
**A.** 4.79%

**Q.** `COCCn1c(SCC(=O)Nc2ccc3c(c2)CCC3)nc2ccccc2c1=O` was tested. Which “hERG current change (%, negative = inhibition) at 10uM” value did it give?
**A.** 4.46%

**Q.** For `CCOc1ccc(CC(C(N)=O)C(N)=O)cc1`, which “hERG current change (%, negative = inhibition) at 10uM” value is on record?
**A.** 21.3%

**Q.** For `CN(C)c1ccc(/C=N/NC(=O)c2nnn(-c3nonc3N)c2CN2CCCCCC2)cc1`, which “hERG current change (%, negative = inhibition) at 10uM” value is on record?
**A.** 1.78%

**Q.** For `Cc1ccc(N=C2NC(=O)CC(C(=O)Nc3ccc4c(c3)OCO4)S2)cc1` (centres unmarked), which “hERG current change (%, negative = inhibition) at 10uM” value is on record?
**A.** 26.7%

**Q.** How did the “hERG current change (%, negative = inhibition) at 10uM” value turn out when `COc1ccc(NC(=O)CN(C)C(C)C(=O)NC(=O)NC2CCCCC2)cc1` (centres unmarked) was run?
**A.** -3.11%

**Q.** How did the “hERG current change (%, negative = inhibition) at 10uM” value turn out when `CC(C)OCCCNc1ncnc2c1[nH]c1ccc(F)cc12` was run?
**A.** -2.39%

**Q.** `COc1cc(NC(=O)c2cccs2)ccc1NC(=O)c1ccco1` was tested. Which “hERG current change (%, negative = inhibition) at 10uM” value did it give?
**A.** 7.66%

**Q.** For `CCOC(=O)C1=C(N)N2C(=O)C(C)SC2=C(C(=O)OCC)C1c1ccccc1` (centres unmarked), which “hERG current change (%, negative = inhibition) at 10uM” value is on record?
**A.** 13.3%

**Q.** With `O=C(c1ccc(Br)o1)N1CCN(c2ccc3nnc(-c4ccccc4)n3n2)CC1` as the compound, how does the “hERG current change (%, negative = inhibition) at 10uM” value read?
**A.** -79.1%

**Q.** For `CCC(=O)Nn1cnc2c(c1=O)C1(CCCCC1)Cc1ccccc1-2`, which “hERG current change (%, negative = inhibition) at 10uM” value is on record?
**A.** 2.51%

**Q.** Which “hERG current change (%, negative = inhibition) at 10uM” value does the source give for `COc1ccccc1C(=O)NCCc1nc2ccccc2[nH]1` here?
**A.** 6.65%

**Q.** How did the “hERG current change (%, negative = inhibition) at 10uM” value turn out when `Cc1ccnc2c(N3C(=O)C4C5C=CC(C5)C4(C)C3=O)cccc12` (centres unmarked) was run?
**A.** -2.98%

**Q.** Which “hERG current change (%, negative = inhibition) at 10uM” value does the source give for `COc1cccc(N2CCN(C(=O)c3ccc(CS(=O)Cc4ccc(C)cc4)o3)CC2)c1` (centres unmarked) here?
**A.** -11.4%

**Q.** Which “hERG current change (%, negative = inhibition) at 10uM” value does the source give for `CCOc1cc(CNCCc2cccc(F)c2)ccc1OC.O=C(O)C(=O)O` here?
**A.** -43.8%

**Q.** For `COC(=O)c1ccccc1NC(=O)CSc1n[nH]c(-c2ccco2)n1`, which “hERG current change (%, negative = inhibition) at 10uM” value is on record?
**A.** 17.2%

**Q.** For `CCOCCCNC(=O)c1cc(Nc2ccc(OC)cc2OC)nc2ccccc12`, which “hERG current change (%, negative = inhibition) at 10uM” value is on record?
**A.** -7.58%

**Q.** How did the “hERG current change (%, negative = inhibition) at 10uM” value turn out when `CC(NC(=O)[C@H](NC(=O)[C@@H]1Cc2ccccc2CN1)c1ccccc1)c1ccccc1` (some centres unmarked) was run?
**A.** -32.9%

**Q.** For `CCOC(=O)c1cnc2nc(NCc3ccc(OC)c(OC)c3)[nH]n2c1=O`, which “hERG current change (%, negative = inhibition) at 10uM” value is on record?
**A.** 7.84%

**Q.** `COc1ccccc1NC(=O)C1=C(C)NC(SCC(=O)Nc2ccc(C(=O)O)cc2)=C(C#N)C1c1cccs1` (centres unmarked) was tested. Which “hERG current change (%, negative = inhibition) at 10uM” value did it give?
**A.** 20.7%

**Q.** For `Clc1ccc(-c2nnc3n2-c2ccccc2SC3)cc1`, which “hERG current change (%, negative = inhibition) at 10uM” value is on record?
**A.** -36.7%

**Q.** For `Cc1cc(C)n(-c2ccc(C(=O)Nc3ccc(C)c(S(=O)(=O)N4CCOCC4)c3)cc2)n1`, which “hERG current change (%, negative = inhibition) at 10uM” value is on record?
**A.** -20.1%

**Q.** With `COc1ccc(NC(=O)c2ccc(-c3ccccc3Cl)o2)cc1` as the compound, how does the “hERG current change (%, negative = inhibition) at 10uM” value read?
**A.** 5.05%

**Q.** With `CC(=O)c1cccc(NC(=O)NC(C)c2ccncc2)c1` (centres unmarked) as the compound, how does the “hERG current change (%, negative = inhibition) at 10uM” value read?
**A.** 0.761%

**Q.** How did the “hERG current change (%, negative = inhibition) at 10uM” value turn out when `C=C1CCC[C@]2(C)C[C@H]3OC(=O)C(CNCC(C)C)[C@H]3CC12` (some centres unmarked) was run?
**A.** -6.83%

**Q.** For `N#Cc1cnc(Nc2nc3ccccc3o2)nc1-c1ccccc1`, which “hERG current change (%, negative = inhibition) at 10uM” value is on record?
**A.** -5.74%

**Q.** With `COc1cccc(CNC(=O)CCC(=O)N2C[C@H]3C[C@H](C2)c2cccc(=O)n2C3)c1OC` as the compound, how does the “hERG current change (%, negative = inhibition) at 10uM” value read?
**A.** 8.62%

**Q.** `Cc1oc(-c2ccccc2Cl)nc1CN(Cc1ccccn1)C[C@@H]1CCC(=O)N1` was tested. Which “hERG current change (%, negative = inhibition) at 10uM” value did it give?
**A.** -9.99%

**Q.** Which “hERG current change (%, negative = inhibition) at 10uM” value does the source give for `COc1ccc(NC(=O)C2CC(c3cc(OC)c(OC)c(OC)c3)=NO2)cc1OC` (centres unmarked) here?
**A.** -8.52%

**Q.** With `CCn1c(N)nc2c1c(=O)n(C)c(=O)n2C` as the compound, how does the “hERG current change (%, negative = inhibition) at 10uM” value read?
**A.** 10.7%

From publication PMC4336329 (PLoS ONE, 2015)
